Measurements as given in paper PMC5700166.
The list shows a part of the results, in another mix than the full data. The list includes weakly bound sequences.

Experiments:
Assay in all cases: protein-binding microarray (PBM)
Conditions in all cases: PBM: ~300 nM protein, 6 mM HEPES pH 7.8, 80 mM KCl, 0.5 mM EDTA, 0.5 mM EGTA, 6% glycerol, 35 ng/ul poly-dIdC, 1% milk, 1 h, room temperature; Ap Aiptasia and Nv Nematostella (sea anemones) / Co Capsaspora / Aq Amphimedon (sponge) / Dm Drosophila / Hu human; RHD is the Rel homology domain; high values mean tight binding; most listed sequences are background and not binding sites; double strand, one strand shown
GST-Ap-NF-kB RHD = biological target: T1, GST-Ap-NF-kB RHD (UniProt A0A913YAJ5)
T1 sequence: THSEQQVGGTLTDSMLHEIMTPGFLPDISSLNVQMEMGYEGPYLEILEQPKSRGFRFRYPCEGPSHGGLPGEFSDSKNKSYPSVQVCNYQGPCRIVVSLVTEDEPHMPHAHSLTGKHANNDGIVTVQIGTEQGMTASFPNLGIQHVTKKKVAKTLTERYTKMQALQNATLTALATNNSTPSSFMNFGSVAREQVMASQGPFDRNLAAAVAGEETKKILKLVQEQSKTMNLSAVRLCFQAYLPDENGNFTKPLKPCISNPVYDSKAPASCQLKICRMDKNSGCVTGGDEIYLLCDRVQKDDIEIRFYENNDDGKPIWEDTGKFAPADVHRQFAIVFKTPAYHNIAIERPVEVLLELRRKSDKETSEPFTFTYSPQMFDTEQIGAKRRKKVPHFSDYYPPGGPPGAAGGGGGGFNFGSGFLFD

[1] = biological target: T2, GST-Nv-NF-kB (Cys allele) (UniProt E5G601)
T2 sequence: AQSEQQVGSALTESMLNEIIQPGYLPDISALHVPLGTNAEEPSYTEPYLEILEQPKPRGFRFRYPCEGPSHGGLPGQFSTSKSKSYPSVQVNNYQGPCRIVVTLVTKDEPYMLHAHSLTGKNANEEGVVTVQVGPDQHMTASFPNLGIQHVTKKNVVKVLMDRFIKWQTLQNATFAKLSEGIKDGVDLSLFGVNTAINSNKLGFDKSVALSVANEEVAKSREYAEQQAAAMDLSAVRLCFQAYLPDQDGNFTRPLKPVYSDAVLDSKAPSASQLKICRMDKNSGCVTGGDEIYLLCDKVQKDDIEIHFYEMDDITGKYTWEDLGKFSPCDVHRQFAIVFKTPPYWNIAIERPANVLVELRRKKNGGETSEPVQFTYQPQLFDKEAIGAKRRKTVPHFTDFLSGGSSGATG

GST-Co-NF-kB = biological target: T3, GST-Co-NF-kB (UniProt F1ARL5)
T3 sequence: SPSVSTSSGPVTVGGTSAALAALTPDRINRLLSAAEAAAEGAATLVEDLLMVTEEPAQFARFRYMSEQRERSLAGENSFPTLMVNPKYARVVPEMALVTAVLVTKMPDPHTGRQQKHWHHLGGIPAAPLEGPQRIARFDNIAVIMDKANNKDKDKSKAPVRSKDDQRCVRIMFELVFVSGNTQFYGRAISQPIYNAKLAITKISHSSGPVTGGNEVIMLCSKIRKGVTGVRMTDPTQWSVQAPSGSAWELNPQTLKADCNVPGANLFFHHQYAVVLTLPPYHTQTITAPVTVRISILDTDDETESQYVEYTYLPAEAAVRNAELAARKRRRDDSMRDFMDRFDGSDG

GST-Dm-Relish = biological target: T4, GST-Dm-Relish (UniProt Q94527)
T4 sequence: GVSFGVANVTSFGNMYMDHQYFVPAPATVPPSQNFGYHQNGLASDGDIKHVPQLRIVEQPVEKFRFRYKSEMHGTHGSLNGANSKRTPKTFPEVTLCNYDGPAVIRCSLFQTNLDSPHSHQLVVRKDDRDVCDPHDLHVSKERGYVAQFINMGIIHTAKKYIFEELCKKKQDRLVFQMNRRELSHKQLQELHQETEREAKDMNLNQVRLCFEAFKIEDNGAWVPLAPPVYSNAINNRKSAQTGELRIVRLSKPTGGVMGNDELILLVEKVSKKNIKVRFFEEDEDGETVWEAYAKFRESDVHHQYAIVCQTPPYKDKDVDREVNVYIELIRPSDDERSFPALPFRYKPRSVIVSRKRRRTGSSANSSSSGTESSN

Row | Sequence | binding signal (GST-Ap-NF-kB RHD) | binding signal [1] | binding signal (GST-Co-NF-kB) | binding signal (GST-Dm-Relish)
1 | CCGATTAACATCAGGAACTGCCCTGATGTTAATCGGGTCTTGATTCGCTTGACGCTGCTG | 0.69 z-score | 0.321 z-score | 0.122 z-score | -0.47 z-score
2 | CCGATTAACATCACTAAATTTCCTGATGTTAATCGGGTCTTGATTCGCTTGACGCTGCTG | 0.407 z-score | 0.136 z-score | 0.407 z-score | 0.0103 z-score
3 | CCGATTAACATCAGAAACTTTCCTGATGTTAATCGGGTCTTGATTCGCTTGACGCTGCTG | -0.499 z-score | 0.317 z-score | -0.146 z-score | 0.896 z-score
4 | CCGATTAACATCAGGTTATTCCATGATGTTAATCGGGTCTTGATTCGCTTGACGCTGCTG | 0.338 z-score | 0.591 z-score | -0.232 z-score | 2.41 z-score
5 | CCGATTAACATCAAAAAGTCCCTTGATGTTAATCGGGTCTTGATTCGCTTGACGCTGCTG | 7.48 z-score | 10.3 z-score | 1.63 z-score | 8.86 z-score
6 | CCGATTAACATCAAAGAATTTCCTGATGTTAATCGGGTCTTGATTCGCTTGACGCTGCTG | 0.0491 z-score | 0.0546 z-score | 0.615 z-score | 0.631 z-score
7 | CCGATTAACATCAGGAAATATCCTGATGTTAATCGGGTCTTGATTCGCTTGACGCTGCTG | -0.978 z-score | 0.347 z-score | -0.51 z-score | 0.438 z-score
8 | CCGATTAACATCAGGATTTGCCCTGATGTTAATCGGGTCTTGATTCGCTTGACGCTGCTG | 0.945 z-score | 1.25 z-score | 0.281 z-score | -0.115 z-score
9 | CCGATTAACATCACGGAACTTCCTGATGTTAATCGGGTCTTGATTCGCTTGACGCTGCTG | 0.181 z-score | -0.052 z-score | 0.00121 z-score | 0.329 z-score
10 | CCGATTAACATCAGAAATTACCATGATGTTAATCGGGTCTTGATTCGCTTGACGCTGCTG | 0.803 z-score | 1.45 z-score | 0.956 z-score | 2.33 z-score
11 | CCGATTAACATCAAGAAATTCCTTGATGTTAATCGGGTCTTGATTCGCTTGACGCTGCTG | -0.449 z-score | 0.694 z-score | -0.114 z-score | 0.963 z-score
12 | CCGATTAACATCAGGAAAATCCATGATGTTAATCGGGTCTTGATTCGCTTGACGCTGCTG | -0.237 z-score | 0.0235 z-score | 0.171 z-score | 1.26 z-score
13 | CCGATTAACATCAAAAGCCCCCCTGATGTTAATCGGGTCTTGATTCGCTTGACGCTGCTG | 5.96 z-score | 6 z-score | 4.6 z-score | 8.42 z-score
14 | CCGATTAACATCAGAAAACCCCATGATGTTAATCGGGTCTTGATTCGCTTGACGCTGCTG | 6.36 z-score | 5.53 z-score | – | 8.35 z-score
15 | CCGATTAACATCAGAAGTTCCCATGATGTTAATCGGGTCTTGATTCGCTTGACGCTGCTG | 2.2 z-score | 2.3 z-score | – | 3.27 z-score
16 | CCGATTAACATCAAAGTCCCCCCTGATGTTAATCGGGTCTTGATTCGCTTGACGCTGCTG | 7.56 z-score | 6.37 z-score | – | 7.85 z-score

Row | Sequence | binding signal (GST-Ap-NF-kB RHD) | binding signal [1] | binding signal (GST-Co-NF-kB) | binding signal (GST-Dm-Relish)
17 | CCGATTAACATCACACTCCCCCCTGATGTTAATCGGGTCTTGATTCGCTTGACGCTGCTG | 5.44 z-score | 4.08 z-score | – | 3.37 z-score
18 | CCGATTAACATCAGGGCTGCCCCTGATGTTAATCGGGTCTTGATTCGCTTGACGCTGCTG | 4.09 z-score | 3.62 z-score | – | 4.09 z-score
19 | CCGATTAACATCAATTCCCATGATGATGTTAATCGGGTCTTGATTCGCTTGACGCTGCTG | 0.994 z-score | 2.46 z-score | – | 0.711 z-score
20 | CCGATTAACATCAGGGGGAATCATGATGTTAATCGGGTCTTGATTCGCTTGACGCTGCTG | 8.02 z-score | 7.33 z-score | – | 6.2 z-score
21 | CCGATTAACATCAATTCCCAACATGATGTTAATCGGGTCTTGATTCGCTTGACGCTGCTG | 0.695 z-score | 2.32 z-score | – | 0.817 z-score
22 | CCGATTAACATCAGGGGAAAGACTGATGTTAATCGGGTCTTGATTCGCTTGACGCTGCTG | 4.98 z-score | 6.57 z-score | – | 6.16 z-score
23 | CCGATTAACATCAACGGAAATTCTGATGTTAATCGGGTCTTGATTCGCTTGACGCTGCTG | 0.646 z-score | -1.2 z-score | – | 0.757 z-score
24 | CCGATTAACATCACCAAATTCCCTGATGTTAATCGGGTCTTGATTCGCTTGACGCTGCTG | 4.1 z-score | 4.67 z-score | – | 4.02 z-score
25 | CCGATTAACATCAGGAGTTGCCCTGATGTTAATCGGGTCTTGATTCGCTTGACGCTGCTG | 0.285 z-score | 0.152 z-score | 0.559 z-score | 0.174 z-score
26 | CCGATTAACATCAAGGGGATTTCTGATGTTAATCGGGTCTTGATTCGCTTGACGCTGCTG | 9.69 z-score | 10.8 z-score | – | 9.09 z-score
27 | CCGATTAACATCAGAAATACCCCTGATGTTAATCGGGTCTTGATTCGCTTGACGCTGCTG | 6.58 z-score | 6.99 z-score | – | 4.99 z-score
28 | CCGATTAACATCATAATGGGAAATGATGTTAATCGGGTCTTGATTCGCTTGACGCTGCTG | 0.905 z-score | 2.83 z-score | 1.93 z-score | 0.973 z-score
29 | CCGATTAACATCAGGAAAACTCCTGATGTTAATCGGGTCTTGATTCGCTTGACGCTGCTG | -0.359 z-score | 0.336 z-score | -0.417 z-score | 0.99 z-score
30 | CCGATTAACATCATGAAGACCCCTGATGTTAATCGGGTCTTGATTCGCTTGACGCTGCTG | 2.6 z-score | 1.18 z-score | 0.156 z-score | 1.35 z-score
31 | CCGATTAACATCAGGACATCCCATGATGTTAATCGGGTCTTGATTCGCTTGACGCTGCTG | 0.495 z-score | -0.402 z-score | -0.275 z-score | 3.93 z-score
32 | CCGATTAACATCAAAATTTGCCCTGATGTTAATCGGGTCTTGATTCGCTTGACGCTGCTG | 0.557 z-score | 0.695 z-score | – | 0.993 z-score
